# Measured values as given in PubChem BioAssay AID1460 (National Center for Advancing Translational Sciences (NCATS), 2008).
# Among all 270,000 compounds or so, about 5,800 (2.1%) were called active. This list was built around the results that the source calls inconclusive (neither active nor inactive); the mix of calls is not that of the screen. Calls come from the whole dose curve; as a rule, active = well fitted inhibition curve with a large enough effect; inconclusive = small, poorly fitted or top-dose-only effect; inactive = flat fitted curve, though single readings scatter. Potencies of inconclusive entries are doubtful fits and often do not repeat.
# Target: Microtubule-associated protein tau (Homo sapiens) (UniProt P10636)
# Chain of UniProt P10636 (P10636 whole entry, looked up): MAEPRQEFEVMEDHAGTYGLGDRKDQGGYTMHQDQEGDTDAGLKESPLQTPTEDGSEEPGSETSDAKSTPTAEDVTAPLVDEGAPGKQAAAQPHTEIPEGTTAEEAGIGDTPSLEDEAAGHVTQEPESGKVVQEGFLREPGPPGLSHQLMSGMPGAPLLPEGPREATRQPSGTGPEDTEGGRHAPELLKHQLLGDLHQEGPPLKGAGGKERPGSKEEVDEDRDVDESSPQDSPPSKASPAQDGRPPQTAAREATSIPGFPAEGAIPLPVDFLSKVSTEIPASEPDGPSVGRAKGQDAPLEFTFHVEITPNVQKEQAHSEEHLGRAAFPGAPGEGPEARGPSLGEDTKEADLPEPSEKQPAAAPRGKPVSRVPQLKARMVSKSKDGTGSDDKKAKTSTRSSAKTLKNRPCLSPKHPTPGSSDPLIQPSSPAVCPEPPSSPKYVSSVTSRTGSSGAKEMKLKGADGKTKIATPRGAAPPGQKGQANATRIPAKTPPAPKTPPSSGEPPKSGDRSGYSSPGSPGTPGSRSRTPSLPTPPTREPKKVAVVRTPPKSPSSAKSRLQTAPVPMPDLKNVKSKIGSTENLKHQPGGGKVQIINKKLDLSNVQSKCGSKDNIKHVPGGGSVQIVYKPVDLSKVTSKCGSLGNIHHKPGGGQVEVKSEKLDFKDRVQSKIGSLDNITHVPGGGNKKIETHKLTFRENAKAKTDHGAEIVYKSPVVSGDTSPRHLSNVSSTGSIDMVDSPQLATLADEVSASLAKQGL
# Test: qHTS for Inhibitors of Tau Fibril Formation, Thioflavin T Binding; note: nearly all actives have a fitted effect of over 55% in size
# Settings: recombinant tau K18 P301L (four-repeat tau fragment), heparin-induced fibrillization, ThT fluorescence; series mostly up to 57.4 µM
# Method in brief: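 Heparin-induced (20 uM) aggregation of recombinant human K18 P301L tau, 15 uM unlabeled with 0.24 uM labeled, pH 7 acetate buffer, 6 hr at 37 C with compound. Fibrils quantified by 30 uM ThT fluorescence after 1 hr ambient incubation.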
# Potency is the fitted concentration of half-maximal effect; tags give direction and shape of the fitted curve.
row,Compound,Potency
1,S=c1[nH]nc(COc2ccccc2)n1/N=C/C=C/c1ccco1,"inconclusive: 14.1 µM [inhibitor, partial curve]"
2,COc1ccc(N2C(=O)CC(NNc3ncc(Cl)cc3Cl)C2=O)cc1 (stereo unspecified),"inconclusive: 12.6 µM [inhibitor, partial curve]"
3,Cc1ccc(-c2nc3ccc(C(=O)O)cc3nc2-c2ccc(C)cc2)cc1,"inconclusive: 22.4 µM [inhibitor, single point]"
4,COc1ccc(OC)c(C2Nc3c(C)cc(C)cc3-c3cc(C)nn32)c1 (stereo unspecified),"inconclusive: 5.01 µM [inhibitor, full curve, poor fit]"
5,CCCNC(=O)c1ccc(C2SCC(=O)N2Cc2ccccc2)cc1 (stereo unspecified),inactive
6,Cc1cccc(N2CCN(CC(=O)Nc3ccccc3[N+](=O)[O-])CC2)c1C,"inconclusive: 8.91 µM [inhibitor, partial curve]"
7,CCC(SC1=N/C(=C/c2ccccc2OC)C(=O)N1c1ccccc1)C(=O)Nc1cc(C)on1 (stereo unspecified),"inconclusive: 20 µM [inhibitor, partial curve]"
8,Cc1ccc(Cl)cc1NC(=O)C(Cc1ccccc1)NS(=O)(=O)c1cccc2nsnc12 (stereo unspecified),inactive
9,CCOc1ccc(Br)cc1C1C(C(=O)OC)=C(C)NC2=C1C(=O)c1ccccc12 (stereo unspecified),active: 10 µM
10,COc1ccc(-c2nc3cnccn3c2Nc2ccc(C)cc2)cc1,"inconclusive: 35.5 µM [inhibitor, single point]"
11,COc1ccc(C)cc1NC(=O)c1c2c(nc3ccccc13)C(=O)N(C1CCCCC1)C2,inactive
12,CC(C)c1nc(Cl)c(C#N)c2c1CSC(C)(C)C2,inactive
13,CN=c1scc(-c2ccco2)n1/N=C/c1ccc(O)c(O)c1,active: 7.08 µM
14,CCN(CC)S(=O)(=O)c1cccc(C(=O)Nc2ccc3c(c2)OCO3)c1,inactive
15,CC(C)Oc1ccc(CNC(=O)c2ccc3c(c2)nc2n3CCCCC2)cc1,inactive
16,CCc1ccc2[nH]c(=O)c(CN(CCN(CC)CC)C(=S)NCc3ccco3)cc2c1,inactive
17,O=C(CCN1C(=O)C2CC=C(Cl)CC2C1=O)NCc1ccco1 (stereo unspecified),"inconclusive: 39.8 µM [inhibitor, single point]"
18,N#C/C(=C\c1ccc(-c2cccc(C(F)(F)F)c2)o1)C(=O)Nn1cnnc1,"inconclusive: 14.1 µM [inhibitor, partial curve]"
19,CCN(CC)c1ccc(N2C(=O)/C(=C/c3cccnc3)SC2=S)cc1,"inconclusive: 7.94 µM [inhibitor, partial curve]"
20,C/C(=N\NC(=O)C(N)=O)c1ccc(Br)cc1,"inconclusive: 14.1 µM [inhibitor, single point]"
21,COc1ccc(C)cc1Nc1ccc(C(=O)O)cc1[N+](=O)[O-],"inconclusive: 35.5 µM [inhibitor, single point]"
22,CC(=O)CCS(=O)(=O)c1ccc(NC(C)=O)cc1,"inconclusive: 15.8 µM [inhibitor, partial curve]"

row,Compound,Potency
1,O=C(CSC1=Nc2ccccc2C2CC=NN12)Nc1ccc(F)cc1Cl (stereo unspecified),"inconclusive: 22.4 µM [inhibitor, partial curve]"
2,Cc1ccccc1OCC(=O)Nc1nnc(S(=O)(=O)N2CCCC2)s1,"inconclusive: 4.47 µM [inhibitor, partial curve]"
3,O=S(Cc1ccc(Br)cc1)Cc1nnc(SCc2c(Cl)cccc2Cl)n1-c1ccccc1 (stereo unspecified),inactive
4,CCn1c(=O)c2cc(C(=O)NCCCN3CCN(c4ccc(F)cc4)CC3)sc2c2ccccc21,"inconclusive: 14.1 µM [inhibitor, partial curve]"
5,COc1ccc(Cl)cc1C(=O)Nc1ccc2nc(Nc3cccc(Cl)c3)cc(C)c2c1,"inconclusive: 14.1 µM [inhibitor, single point]"
6,CCCc1ccc(S(=O)(=O)N2CCC(c3nnc(-c4cccc(C)c4)o3)CC2)cc1,"inconclusive: 14.1 µM [inhibitor, partial curve, poor fit]"
7,N#C/C(=C\c1ccc(O)cc1)c1nc2ccccc2o1,"inconclusive: 7.94 µM [inhibitor, partial curve]"
8,C[Si](C)(C)C#Cc1ccccc1NC(=S)Nc1ccccc1,"inconclusive: 39.8 µM [inhibitor, partial curve]"
9,CCOC(=O)N1CCN(CC(=O)c2c(C)[nH]c3ccccc23)CC1,"inconclusive: 7.94 µM [inhibitor, full curve, poor fit]"
10,Cc1cc(C(=O)N(C)CC(=O)Nc2ccccc2C(F)(F)F)c(C)o1,"inconclusive: 39.8 µM [inhibitor, single point]"
11,O=C(Nc1ccc(NC(=O)c2ccco2)c(Cl)c1)c1cccc([N+](=O)[O-])c1,"inconclusive: 2.24 µM [inhibitor, full curve]"
12,C=CCn1c(C)cc(C(=O)COC(=O)c2ccc3c(c2)NC(=O)CS3)c1C,"inconclusive: 22.4 µM [inhibitor, partial curve]"
13,Cc1sc(NC(=O)/C=C/c2ccc3c(c2)OCO3)nc1-c1ccccc1,"inconclusive: 2.51 µM [inhibitor, full curve]"
14,O=C(COC(=O)c1c2c(nc3ccccc13)/C(=C/c1cccc([N+](=O)[O-])c1)CCC2)NC1CCS(=O)(=O)C1 (stereo unspecified),"inconclusive: 7.94 µM [inhibitor, partial curve]"
15,CCOC(=O)c1c(C)[nH]c(C(=O)CSc2nnc(CC(C)c3ccccc3)o2)c1C (stereo unspecified),"inconclusive: 11.2 µM [inhibitor, partial curve]"
16,COc1ccc(N2CS(=O)CC2=O)cc1 (stereo unspecified),inactive
17,O=C(NCc1ccco1)C(c1cccs1)N(C(=O)C1COc2ccccc2O1)c1cccc(O)c1 (stereo unspecified),inactive
18,COc1ccc(/C=N/Nc2ncnc3sc4c(c23)CCCC4)cc1O,"inconclusive: 12.6 µM [inhibitor, partial curve]"
19,O=C(CCC(=O)N/N=C/c1cc(Cl)cc(Cl)c1O)NCc1ccccc1,"inconclusive: 12.6 µM [inhibitor, partial curve]"
20,CN(C)Cc1nc2ccccc2c(=O)n1Cc1nc(-c2cccc([N+](=O)[O-])c2)cs1,"inconclusive: 17.8 µM [inhibitor, single point]"
21,COc1ccccc1CCN1COc2c(cc3c(C)c(C)c(=O)oc3c2C)C1,"inconclusive: 39.8 µM [inhibitor, single point]"
22,COC(=O)C1C(=O)N2CCCSC2=C(C#N)C1c1cccs1 (stereo unspecified),inactive

row,Compound,Potency
1,COc1cccc(C2c3c(C)nn(-c4ccc([N+](=O)[O-])cc4)c3N=C3C(=O)Nc4ccccc4N32)c1 (stereo unspecified),"inconclusive: 31.6 µM [inhibitor, single point]"
2,N#C/C(C(=O)NCc1ccccc1)=C1/N=C(NC(=O)c2cccs2)c2ccccc21,"inconclusive: 39.8 µM [inhibitor, single point]"
3,COC1=C/C(=C/c2c(N)n3cc(C)sc3nc2=O)C=CC1=O,"inconclusive: 14.1 µM [inhibitor, partial curve]"
4,N#CCCN1CCN(C(=S)c2ccc(-c3cccc(Cl)c3)o2)CC1,"inconclusive: 28.2 µM [inhibitor, partial curve]"
5,CCOc1ccc(N2CC(c3nc4ccccc4n3CCCCOc3ccc(OC)cc3)CC2=O)cc1 (stereo unspecified),"inconclusive: 3.55 µM [inhibitor, full curve]"
6,CCC(=O)N1CCN(c2ccc(NC(=O)c3cc4ccccc4o3)cc2)CC1,active: 2.82 µM
7,O=S(=O)([N-]c1nc2ccccc2nc1-n1cc[n+](Cc2ccccc2)c1)c1ccc(Br)cc1,inactive
8,COc1ccc(OC)c(-c2csc(NC(=O)c3ccc4c(c3)OCO4)n2)c1,"inconclusive: 2.82 µM [inhibitor, full curve]"
9,O=C(O)CSc1cc(C(=O)c2ccccc2O)cn2c(=O)c3c(-c4ccccc4)csc3nc12,active: 25.1 µM
10,Cc1cccc(-n2c(=S)[nH]c3nc4c(cc3c2=O)COC(C)(C)C4)c1,inactive
11,O=C(NCc1cccnc1)c1ccc(COc2cccc3ccccc23)o1,"inconclusive: 28.2 µM [inhibitor, partial curve]"
12,Cc1nc2c(c3c1[nH]c1ccccc13)C(O)CC(C)(C)C2 (stereo unspecified),inactive
13,COc1ccc(OC)c(-c2nnc(-c3ccc(C)o3)o2)c1,"inconclusive: 25.1 µM [inhibitor, partial curve, poor fit]"
14,CCN(CC)C(=O)Cn1c(=O)c2ccccc2n2c(=S)sc(-c3cccc(C)c3)c12,"inconclusive: 28.2 µM [inhibitor, single point]"
15,COc1ccc(OCCCC(=O)Nc2cccc(SC)c2)cc1,"inconclusive: 22.4 µM [inhibitor, single point]"
16,Cc1cc(/C=C2\C(=N)N3N=C(c4ccco4)SC3=NC2=O)c(C)n1Cc1ccccc1,active: 12.6 µM
17,Cc1cc(C)cc(NC(=O)c2sc3nc4n(c(=O)c3c2C)N=C(c2ccccc2)CS4)c1,inactive
18,COc1cc2c(cc1OC)C(c1ccc(-c3cc(Cl)ccc3Cl)o1)=NCC2,"inconclusive: 3.98 µM [inhibitor, full curve, poor fit]"
19,Cc1cc(C)n(-c2nc3c(c(=O)[nH]c(=O)n3C)n2Cc2cccc(Br)c2)n1,inactive
20,Cc1oc(C(=O)O)cc1COc1ccc2c(C)cc(=O)oc2c1,"inconclusive: 7.08 µM [inhibitor, partial curve]"
21,O=C(Nc1cccc(F)c1)N1CC=C(c2ccc(Cl)cc2)CC1,"inconclusive: 8.91 µM [inhibitor, partial curve]"
22,CS(=O)(=O)c1ccc(Sc2nc3ccccc3s2)c([N+](=O)[O-])c1,"inconclusive: 11.2 µM [inhibitor, partial curve]"
